Measurements reported in patent publication US20100056439A1 (DOMANTIS, published 2010).

Legend:
[1] = target: T1, EGFR expressed on A431 cells (human, UniProt P00533); assay: EGFR binding assay of Example 2 (biotinylated EGF to A431 cells); quantity not named in the column's head
T1 construct: whole, on cells; The assay text gives no species; also called epidermal growth factor receptor

VEGF-165 = target: T2, VEGF-165 (human, UniProt P15692-4 27-191); assay: VEGF receptor 2 binding assay of Example 1 (competition ELISA, VEGF-165 to VEGF R2/Fc); quantity not named in the column's head
T2 construct: The assay text gives no species; also called vascular endothelial growth factor
T2 sequence (looked up): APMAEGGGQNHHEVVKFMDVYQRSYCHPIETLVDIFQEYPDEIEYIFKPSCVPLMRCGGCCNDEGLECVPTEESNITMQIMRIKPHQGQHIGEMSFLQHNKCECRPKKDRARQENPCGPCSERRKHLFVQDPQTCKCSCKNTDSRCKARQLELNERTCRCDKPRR

B1: DOM16-39-206 (VK)-KVEIKRTVAAPS-DOM15-10 (VK)-KVEIKRTVAAPS-Fc (Fc fusion)
chain: DIQMTQSPSSLPASVGDRVTITCRASQWIGINLDWYQQKPGKAPKLLIYYASFLQSGVPSRFSGSGSGTDFTLTISSLQPEDFATYYCQQANPAPLTFGQGTKVEIKRTVAAPSDIQMTQSPSSLSASVGDRVTITCRASQWIGPELSWYQQKPGKAPKLLIYHTSILQSGVPSRFSGSGSGTDFTLTISSLQPEDFATYYCQQYMFQPRTFGQGTKVEIKRTVAAP[letters of human IgG1 Fc and a few adjoining residues omitted]
notes: also called DOM16-39-206 fused to TAR15-10 and to Fc
Question: Which results are given for B1?
Answer: Assay dAb1 [1]: 3.7 nM; Assay dAb2 (VEGF-165): 0.88 nM

B2: DOM16-39-601 (VK)-LVTVSSGGGGSGGGS-DOM15-10 (VK)-LVTVSSGGGGSGGGS-Fc (Fc fusion, human)
chain: DIQMTQSPSSLSASVGDRVTITCRASQWIGNLLDWYQQKPGKAPKLLIYYASFLQSGVPSRFSGSGYGTDFTLTISSLQPEDFATYYCQQANPVPPTFGQGTLVTVSSGGGGSGGGSDIQMTQSPSSLSASVGDRVTITCRASQWIGPELSWYQQKPGKAPKLLIYHTSILQSGVPSRFSGSGSGTDFTLTISSLQPEDFATYYCQQYMFQPRTFGQGTLVTVSSGGGGSGG[letters of human IgG1 Fc and a few adjoining residues omitted]
notes: domain: -CH2-CH3 of human IgG1
Question: For B2, which “Assay dAb1” value [1] is on record?
Answer: 5.7 nM

Question: And the “Assay dAb2” value (VEGF-165)?
Answer: 0.2 nM

B3: DOM15-10 (VK)-KVEIKRTVAAPS-DOM16-39-206 (VK)-KVEIKRTVAAPS-Fc (Fc fusion)
chain: DIQMTQSPSSLPASVGDRVTITCRASQWIGPELSWYQQKPGKAPKLLIYHTSILQSGVPSRFSGSGSGTDFTLTISSLQPEDFATYYCQQYMFQPRTFGQGTKVEIKRTVAAPSDIQMTQSPSSLSASVGDRVTITCRASQWIGINLDWYQQKPGKAPKLLIYYASFLQSGVPSRFSGSGSGTDFTLTISSLQPEDFATYYCQQANPAPLTFGQGTKVEIKRTVAAP[letters of human IgG1 Fc and a few adjoining residues omitted]
notes: Expressed in HEK 293T cells; also called TAR15-10 fused to DOM16-39-206 and to Fc
Question: Which “Assay dAb2” value [1] does the source give for B3 here?
Answer: 23.8 nM

B4: DOM16-39-601 (VK)-LVTVSSAST-DOM15-10 (VK)-LVTVSSAST-Fc (Fc fusion, human)
chain: DIQMTQSPSSLSASVGDRVTITCRASQWIGNLLDWYQQKPGKAPKLLIYYASFLQSGVPSRFSGSGYGTDFTLTISSLQPEDFATYYCQQANPVPPTFGQGTLVTVSSASTDIQMTQSPSSLSASVGDRVTITCRASQWIGPELSWYQQKPGKAPKLLIYHTSILQSGVPSRFSGSGSGTDFTLTISSLQPEDFATYYCQQYMFQPRTFGQGTLVTVSSA[letters of human IgG1 Fc and a few adjoining residues omitted]
notes: domain: -CH2-CH3 of human IgG1; The printed linkers include C-terminal residues of a V domain (LVTVSS of VH, KVEIKR of Vk)
Question: With B4 as the binder, how does the “Assay dAb1” value [1] read?
Answer: 0.68 nM

Question: What about the “Assay dAb2” value (VEGF-165) of the same binder?
Answer: 10.8 nM

B5: DOM15-26-501 (VH)-LVTVSSASTKGPS-DOM16-39-206 (VK)-…-Fc (Fc fusion)
chain: EVQLLESGGGLVQPGGSLRLSCAASGFTFKAYPIMWVRQAPGKGLEWVSEISPSGSYTYYADSVKGRFTISRDNSKNTLYLQMNSLRAEDTAVYYCAKDPRKFDYWGQGTLVTVSSASTKGPSDIQMTQSPSSLSASVGDRVTITCRASQWIGINLDWYQQKPGKAPKLLIYYASFLQSGVPSRFSGSGSGTDFTLTISSLQPEDFATYYCQQANPAPLTFGQGTKVEIKRTVAAP[letters of human IgG1 Fc and a few adjoining residues omitted]
notes: also called TAR15-26-501 fused to DOM16-39-206 and to Fc
Question: With B5 as the binder, how does the “Assay dAb1” value (VEGF-165) read?
Answer: 5.7 nM

B6: DOM15-10 (VK)-LVTVSSAST-DOM16-39-601 (VK)-LVTVSSAST-Fc (Fc fusion, human)
chain: DIQMTQSPSSLSASVGDRVTITCRASQWIGPELSWYQQKPGKAPKLLIYHTSILQSGVPSRFSGSGSGTDFTLTISSLQPEDFATYYCQQYMFQPRTFGQGTLVTVSSASTDIQMTQSPSSLSASVGDRVTITCRASQWIGNLLDWYQQKPGKAPKLLIYYASFLQSGVPSRFSGSGYGTDFTLTISSLQPEDFATYYCQQANPVPPTFGQGTLVTVSSA[letters of human IgG1 Fc and a few adjoining residues omitted]
notes: as for B2
Question: How did the “Assay dAb2” value [1] turn out when B6 was run?
Answer: 4.2 nM

Question: And the “Assay dAb1” value (VEGF-165)?
Answer: 1.2 nM

B7: DOM16-39-206 (VK)-KVEIKRTVAAPS-DOM15-26-501 (VH)-…-Fc (Fc fusion)
chain: DIQMTQSPSSLSASVGDRVTITCRASQWIGINLDWYQQKPGKAPKLLIYYASFLQSGVPSRFSGSGSGTDFTLTISSLQPEDFATYYCQQANPAPLTFGQGTKVEIKRTVAAPSEVQLLESGGGLVQPGGSLRLSCAASGFTFKAYPIMWVRQAPGKGLEWVSEISPSGSYTYYADSVKGRFTISRDNSKNTLYLQMNSLRAEDTAVYYCAKDPRKFDYWGQGTLVTVSSASTKGP[letters of human IgG1 Fc and a few adjoining residues omitted]
notes: also called DOM16-39-206 fused to TAR15-26-501 and to Fc
Question: How did the “Assay dAb2” value (VEGF-165) turn out when B7 was run?
Answer: 21.3 nM

B8: DOM15-10 (VK)-KVEIKRTVAAPS-DOM16-39-601 (VK)-KVEIKRTVAAPS-Fc (Fc fusion, human)
chain: DIQMTQSPSSLSASVGDRVTITCRASQWIGPELSWYQQKPGKAPKLLIYHTSILQSGVPSRFSGSGSGTDFTLTISSLQPEDFATYYCQQYMFQPRTFGQGTKVEIKRTVAAPSDIQMTQSPSSLSASVGDRVTITCRASQWIGNLLDWYQQKPGKAPKLLIYYASFLQSGVPSRFSGSGYGTDFTLTISSLQPEDFATYYCQQANPVPPTFGQGTKVEIKRTVAA[letters of human IgG1 Fc and a few adjoining residues omitted]
notes: domain: -CH2-CH3 of human IgG1; The natural linker overlaps the C-terminus of the Vk dAb entry
Question: B8 was tested. Which “Assay dAb2” value [1] did it give?
Answer: 2.9 nM

Question: What about the “Assay dAb1” value (VEGF-165) of the same binder?
Answer: 0.2 nM

B9: DOM15-10 (VK)-LVTVSSGGGGSGGGS-DOM16-39-601 (VK)-LVTVSSGGGGSGGGS-Fc (Fc fusion, human)
chain: DIQMTQSPSSLSASVGDRVTITCRASQWIGPELSWYQQKPGKAPKLLIYHTSILQSGVPSRFSGSGSGTDFTLTISSLQPEDFATYYCQQYMFQPRTFGQGTLVTVSSGGGGSGGGSDIQMTQSPSSLSASVGDRVTITCRASQWIGNLLDWYQQKPGKAPKLLIYYASFLQSGVPSRFSGSGYGTDFTLTISSLQPEDFATYYCQQANPVPPTFGQGTLVTVSSGGGGSGG[letters of human IgG1 Fc and a few adjoining residues omitted]
notes: as for B2
Question: What does the source list for B9?
Answer: Assay dAb2 [1]: 3.1 nM; Assay dAb1 (VEGF-165): 0.8 nM

B10: DOM16-39-601 (VK)-KVEIKRTVAAPS-DOM15-10 (VK)-KVEIKRTVAAPS-Fc (Fc fusion, human)
chain: DIQMTQSPSSLSASVGDRVTITCRASQWIGNLLDWYQQKPGKAPKLLIYYASFLQSGVPSRFSGSGYGTDFTLTISSLQPEDFATYYCQQANPVPPTFGQGTKVEIKRTVAAPSDIQMTQSPSSLSASVGDRVTITCRASQWIGPELSWYQQKPGKAPKLLIYHTSILQSGVPSRFSGSGSGTDFTLTISSLQPEDFATYYCQQYMFQPRTFGQGTKVEIKRTVAA[letters of human IgG1 Fc and a few adjoining residues omitted]
notes: domain: -CH2-CH3 of human IgG1; plain joining of the parts may double those residues
Question: How did the “Assay dAb1” value [1] turn out when B10 was run?
Answer: 0.77 nM

Question: And the “Assay dAb2” value (VEGF-165)?
Answer: 2.9 nM
